Experimental findings from the RNAGym collection of RNA variant scans (doi:10.1093/nar/gkz1192) are described below.

Read counts are not given, so values of variants with three or more changes are uncertain.

Sequences and labels used below:
B1: CPEB3 Ribozyme (parent)
chain: UAACAGGGGGCCACAGCAGAAGCGUUCACGUCGCAGCCCCUGUCAGAUUCUGGUGAAUCUGCGAAUUCUGCUGUAUAUCUC

The series covers variants of B1. The series can be described thus: self-cleavage, relative activity (ratio to wild type); higher = more cleavage; in vitro, sequencing. The essentials: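 Libraries of CPEB3 self-cleaving ribozyme mutants came from rounds of error-prone PCR and carried barcodes, which DNA sequencing matched to variants. In vitro transcription used T7 RNA polymerase at 37°C for 5 hours, with a further 15 min in DNase I before EDTA stopped the reaction; the ribozymes cleaved during both steps. The RNA was reverse transcribed with template switching and sequenced on Illumina. Relative activity is the cleaved/total read fraction of a variant divided by that of the unmutated ribozyme, averaged over three batches with at least 5 reads.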
Take UAACAGGGGGCCACAGCAGAAGCGUUCACGUCGCAGCCCCUGUCAGAUUCUGGUGAAUCUGCGUAUUCUGCUGCAUAUUCC: the self-cleavage was 0.59.
The result for UAACAGGGGGCCACAGCAGAAGCGUUCACGUCGCAGCCCCUGUCAGAUUCUGGUGAAUCUGCGAAAUCUGCUGUAUGUCCC reads 0.36.
Then UAACAGGGGGCCACAGCAGAAGCGUUCACGUCGCAGCCCCUGUCAGAUUCUGGUGAAUCUGCGAGUUCUGCUGUGUAUUCC, with 0.41; and UAACAGGGGGCCACAGCAGAAGCGUUCACGUCGCAGCCCCUGUCAGAUUCUGGUGAAUCUGCGUGUUCUGCCGUAUAUCUC, with 0.24.
On to UAACAGGGGGCCACAGCAGAAGCGUUCACGUCGCAGCCCCUGUCAGAUUCUGGUGAAUCUGCGUGUUCCGCUGUAUAUCUC, for which the self-cleavage was 0.19.
For UAACAGGGGGCCACAGCAGAAGCGUUCACGUCGCAGCCCCUGUCAGAUUCUGGUGAAUCUGCGGAUUCUGCAGUAUACCUC, the self-cleavage amounted to 0.95.
The result for UAACAGGGGGCCACAGCAGAAGCGUUCACGUCGCAGCCCCUGUCAGAUUCUGGUGAAUCUGCGUGUUCUGCUGUAUAUCAC reads 0.31; that for UAACAGGGGGCCACAGCAGAAGCGUUCACGUCGCAGCCCCUGUCAGAUUCUGGUGAAUCUGCGGAUUCUGCCGUAUACCUC, 0.93.
The result for UAACAGGGGGCCACAGCAGAAGCGUUCACGUCGCAGCCCCUGUCAGAUUCUGGUGAAUCUGCGGAUUCUGCAGUAUCUCUC reads 0.44; that for UAACAGGGGGCCACAGCAGAAGCGUUCACGUCGCAGCCCCUGUCAGAUUCUGGUGAAUCUGCGGAUCCUGCUGUACAUCUC, 0.23.
Then UAACAGGGGGCCACAGCAGAAGCGUUCACGUCGCAGCCCCUGUCAGAUUCUGGUGAAUCUGCGUAUUCUGCUGAAUAUCAC, with 0.75.
For the variant UAACAGGGGGCCACAGCAGAAGCGUUCACGUCGCAGCCCCUGUCAGAUUCUGGUGAAUCUGCGGACUCUGCUGUAUAUCCC, the self-cleavage is 0.24.
Then UAACAGGGGGCCACAGCAGAAGCGUUCACGUCGCAGCCCCUGUCAGAUUCUGGUGAAUCUGCGGAUCCAGCUGUAUAUCUC, with 0.18; and UAACAGGGGGCCACAGCAGAAGCGUUCACGUCGCAGCCCCUGUCAGAUUCUGGUGAAUCUGCGAACCCUGCUGUGUAUCUC, with 0.19.
Then UAACAGGGGGCCACAGCAGAAGCGUUCACGUCGCAGCCCCUGUCAGAUUCUGGUGAAUCUGCGGAUACUGCUGUAUAUCCC, with 0.72.
As to UAACAGGGGGCCACAGCAGAAGCGUUCACGUCGCAGCCCCUGUCAGAUUCUGGUGAAUCUGCGUAAUCAGCUGUAUAUCUC, the self-cleavage came to 0.29.
In the case of UAACAGGGGGCCACAGCAGAAGCGUUCACGUCGCAGCCCCUGUCAGAUUCUGGUGAAUCUGCGAGUUCUGCUGUAUAACAC, the self-cleavage stood at 0.68.
The result for UAACAGGGGGCCACAGCAGAAGCGUUCACGUCGCAGCCCCUGUCAGAUUCUGGUGAAUCUGCGUAUCCUGCUAUAUAUCUC reads 0.24; that for UAACAGGGGGCCACAGCAGAAGCGUUCACGUCGCAGCCCCUGUCAGAUUCUGGUGAAUCUGCGAGUACUGCUGGAUAUCUC, 0.19; that for UAACAGGGGGCCACAGCAGAAGCGUUCACGUCGCAGCCCCUGUCAGAUUCUGGUGAAUCUGCGAACUCUGCUGUAUGUCCC, 0.39.
Then UAACAGGGGGCCACAGCAGAAGCGUUCACGUCGCAGCCCCUGUCAGAUUCUGGUGAAUCUGCGAGUUCUGCUGCAUACCUC, with 0.64.
Then UAACAGGGGGCCACAGCAGAAGCGUUCACGUCGCAGCCCCUGUCAGAUUCUGGUGAAUCUGCGACUUCUGCUGUGUAUCAC, with 0.38; and UAACAGGGGGCCACAGCAGAAGCGUUCACGUCGCAGCCCCUGUCAGAUUCUGGUGAAUCUGCGUAUCCUGCUGUAUAUCAC, with 0.47.
On to UAACAGGGGGCCACAGCAGAAGCGUUCACGUCGCAGCCCCUGUCAGAUUCUGGUGAAUCUGCGAUUUCUGCGGUAUAACUC, for which the self-cleavage came to 0.33.
UAACAGGGGGCCACAGCAGAAGCGUUCACGUCGCAGCCCCUGUCAGAUUCUGGUGAAUCUGCGUAUUCAGCUGUGUAUCUC: the self-cleavage came to 0.2.
For the variant UAACAGGGGGCCACAGCAGAAGCGUUCACGUCGCAGCCCCUGUCAGAUUCUGGUGAAUCUGCGGAUUCCGCAGUAUAUCUC, the self-cleavage was 0.22.
UAACAGGGGGCCACAGCAGAAGCGUUCACGUCGCAGCCCCUGUCAGAUUCUGGUGAAUCUGCGUAAUCUGCAGUACAUCUC: the self-cleavage was 0.09.
For UAACAGGGGGCCACAGCAGAAGCGUUCACGUCGCAGCCCCUGUCAGAUUCUGGUGAAUCUGCGAGUCCUGCAGUAUAUCUC, the self-cleavage came to 0.26.
Then UAACAGGGGGCCACAGCAGAAGCGUUCACGUCGCAGCCCCUGUCAGAUUCUGGUGAAUCUGCGAGUUCCGCCGUAUGUCUC, with 0.4; and UAACAGGGGGCCACAGCAGAAGCGUUCACGUCGCAGCCCCUGUCAGAUUCUGGUGAAUCUGCGGAUCCUGCUGUAUAUCCC, with 0.34.
Then UAACAGGGGGCCACAGCAGAAGCGUUCACGUCGCAGCCCCUGUCAGAUUCUGGUGAAUCUGCGUAUUCUGCCGUAUAUCAC, with 0.5; and UAACAGGGGGCCACAGCAGAAGCGUUCACGUCGCAGCCCCUGUCAGAUUCUGGUGAAUCUGCGGAUUCUGCUGAAUAUCCC, with 1.19; and UAACAGGGGGCCACAGCAGAAGCGUUCACGUCGCAGCCCCUGUCAGAUUCUGGUGAAUCUGCGAAAUCUGCGGAAUAUCUC, with 0.69.
Take UAACAGGGGGCCACAGCAGAAGCGUUCACGUCGCAGCCCCUGUCAGAUUCUGGUGAAUCUGCGAGUUCUGUCGUUUAUCUC: the self-cleavage was 0.4.
